Reference: PubChem BioAssay (NCI)
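Grown in 96-well plates, cells were treated for 48 hours with each compound at five concentrations. Insufficient inhibition: endpoint recorded as highest concentration tested. Abbreviation: GI50, concentration required for 50% inhibition of growth. TGI: concentration producing complete growth inhibition.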

Tested on: NCI-H322M lung
Assay: growth of human tumour cells (NCI), 48 h

Compound	GI50 [µM]	TGI [µM]
CN(C)c1nc(NCCNS(=O)(=O)c2ccc(C3=Nc4c(N)nc(N)nc4NC(c4ccccc4)C3)cc2)nc(Nc2ccc(F)cc2)n1 (centres undefined)	> 100	> 100
O=c1[nH]c2ccc(Cl)cc2cc1CSc1ccc(Nc2nccc(-c3ccc(Cl)cc3)n2)cc1	30.9	> 100
COc1ccc(C(=O)/C=C/c2c(F)cccc2Cl)cc1S(N)(=O)=O	3.06	13.1
COc1ccc(N=Nc2c(N)nn3c(-c4cc5cc(Br)ccc5oc4=O)ccnc23)cc1	4.15	21.8
Fc1ccc(/C=C/c2nc3ccccc3n3c(-c4ccc(Cl)cc4)nnc23)cc1	> 100	> 100
CC1=C2C(=C[C@@](C)(COP(=O)(Oc3ccccc3)Oc3ccccc3)[C@@H]2O)C(=O)[C@@](C)(O)C12CC2	0.776	2.43
COc1ccc(C(=O)/C=C/c2cccc(Br)c2)cc1S(N)(=O)=O	2.26	8.99
